Measurements reported in PubChem BioAssay AID602313 (National Center for Advancing Translational Sciences (NCATS), 2012).
Out of some 390,000 compounds screened, about 760 (0.19%) were called active. Another 3% or so got no clear call; they are omitted. The call rests on the fitted dose curve; in most records, active means well fitted inhibition curve with a large enough effect; inconclusive means small, poorly fitted or top-dose-only effect; inactive means flat fitted curve, though single readings scatter. This is a selection; strong and weak results do not stand in their true shares.

test: qHTS for Inhibitors of Vif-A3F Interactions: qHTS; conditions: HeLa A3F-eYFP + Vif (tagged APOBEC3F with the HIV-1 protein that degrades it), YFP fluorescence increase; series mostly up to 46.1 µM; activity, negative = active: at the top concentration; further: nearly all actives have a fitted effect of over 65% in size; on activity, negative = active: % of control where 0% means no effect
Excerpt: The recent discovery and characterization of host restriction factors, which provide a potent defense to invading retroviruses, has provided new targets for antiviral drug development. APOBEC3G (A3G) and APOBEC3F (A3F) are potent cytidine deaminases that block HIV-1 replication; HIV-1 expresses the Vif protein, which counteracts A3G and A3F by binding to them and inducing their proteasomal degradation. The Vif-A3G and Vif-A3F interactions provide two potential targets for development of small molecules which can interfere with the ability of Vif to degrade A3G or A3F. […] To identify inhibitors that can interfere with Vif mediated degradation of A3G and A3F, we have developed Hela cell lines that stably express A3G or A3F tagged with eYFP at the C-terminal end (A3G-eYFP or A3F-eYFP, respectively) and Vif. In the absence of an inhibitor, Vif induces degradation of A3G-eYFP and A3F-eYFP, and the cells are not fluorescent. In the presence of an inhibitor, it is expected that Vif will be unable to degrade A3G-eYFP and/or A3F-eYFP, resulting in an increase in yellow fluorescence. In this assays Vif A3F was screened against the Molecular Library Small Molecule Repository (MLSMR). NIH Chemical Genomics Center [NCGC] NIH Molecular Libraries Probe Centers Network [MLPCN] MLPCN Grant: MH093245 Assay Submitter (PI): Vinay Pathak, National Cancer Institute
5 uL of 700 cells/well of A3F-YFP cells are dispensed into black, clear bottom plates. The plates are incubated overnight at 37 deg C. 23 nL of compounds are added by pintool. The plates are incubated overnight at 37 deg C and then read on the TTP Acumen (Ex 488/ Em 500-530).
Potency means the concentration at half of the fitted maximal effect.

SMILES	activity, negative = active	Potency
CCN1CCN(Cc2ccc(NC(=O)c3cc(NC(=O)c4cc5cccc(OC)c5o4)cc(OC)c3)cc2C(F)(F)F)CC1	inactive: -9.58%	–
Cc1ccc2c(C)nc(/N=C(\N)NC(=O)N3c4ccccc4Sc4ccccc43)nc2c1	inactive: -11.4%	–
O=C(/C=C/c1ccc(-c2cccc([N+](=O)[O-])c2)o1)N1CCOCC1	inactive: 11.3%	–
N#Cc1c(NC(=O)/C=C/C(=O)O)sc2c1CCN(Cc1ccccc1)C2	–	active: 25.1 µM
CC[C@]12CCCN3CCc4c(n(c5ccccc45)[C@](O)(C(=O)OC)C1)[C@@H]32	inactive: -1.87%	–
CCOc1ccc(CCNC(=O)CSc2cc(=O)n(C)c3ccccc23)cc1OCC	inactive: 3.3%	–
Cc1cccc(NC(=O)c2cc(S(=O)(=O)N3CCC4(CC3)OCCO4)ccc2F)c1	inactive: 11.9%	–
Cn1cccc1/C=C1/SC(=S)N(CC(=O)O)C1=O	inactive: -13%	–
CCCCN(C(=O)c1ccc([N+](=O)[O-])s1)c1c(N)n(CCCC)c(=O)[nH]c1=O	–	active: 12.6 µM
Cc1nc(SCc2cccc(C(=O)O)c2)nc2c1CCCC2	inactive: 15.1%	–
Cc1ccc[n+](-c2nc3ccccc3nc2C(=C=[N-])C#N)c1	inactive: -5.34%	–
CC(=O)OC[C@H]1O[C@@H](Sc2cccc3cccnc23)[C@H](OC(C)=O)[C@@H](OC(C)=O)[C@@H]1OC(C)=O	inactive: 1.95%	–
CCOc1cccc(NC(=O)/C(C#N)=C/c2cccnc2)c1	inactive: 7.72%	–
Cc1cc(C)c(/C=C2\C(=O)Nc3ccccc32)[nH]1	–	active: 12.6 µM
Cc1cc(C)n2c(SCC(O)=C(C#N)c3nc4ccccc4[nH]3)nnc2n1	inactive: -28.8%	–
COc1cccc(NC(=O)CSc2nc3ccccc3nc2N2CCOCC2)c1	inactive: 0.947%	–
Cc1ccc(C)c(NC(=O)N2CC=C(c3c[nH]c4ccccc34)CC2)c1	–	active: 25.1 µM
CC(=O)OCC1OC(Sc2cccc3cccnc23)C(OC(C)=O)C(OC(C)=O)C1OC(C)=O (configuration not stated)	inactive: -1.2%	–
Cn1c2ccccc2c(=O)c2c(O)cccc21	inactive: 23.5%	–
CCOc1ccc(CCNC(=O)CSc2cc(=O)n(C)c3ccc(Cl)cc23)cc1OCC	inactive: 0.701%	–
CCCCn1c(N)c(N(CC(C)C)C(=O)Cc2ccc(S(=O)(=O)N3CCOCC3)s2)c(=O)[nH]c1=O	–	active: 25.1 µM
CSc1cccc(NC(=O)c2cc3c(COC(C)=O)cnc(C)c3oc2=O)c1	–	active: 10 µM
CCC(C)Sc1ccc(-c2nc3cc(C)ccn3c2NC2CCCCC2)cc1 (configuration not stated)	–	active: 11.2 µM
COc1ccc(-n2nc3c(N4CCC(C(=O)N5CCC(C)CC5)CC4)nnc(C)c3c2C)cc1	inactive: -7.16%	–

SMILES	activity, negative = active	Potency
Cc1cc(/C=C2/NC(=O)NC2=O)c(C)n1-c1ccc(N2CCOCC2)cc1	inactive: -14.2%	–
CCOC(=O)c1c(-c2ccc(OC)cc2)csc1/N=C/C1=C(O)CCCC1=O	–	active: 22.4 µM
C=CC[C@@H](CC(=O)N[C@H](CO)Cc1ccccc1)C(=O)N[C@H](COC(=O)[C@@H](CC=C)CC(=O)OC(C)(C)C)Cc1ccccc1	inactive: 2.88%	–
COc1ccc(/C=C(/NC(=O)c2ccccc2Cl)C(=O)NCCCC(=O)O)cc1	inactive: -10.6%	–
O=C(C[C@H]1C/C=C\CC[C@@H](Cc2ccc(F)cc2)C(=O)O[C@H](c2ccccc2)CNC1=O)N[C@H](CO)Cc1ccccc1	inactive: -5.99%	–
C/C(Sc1nnc(Cc2ccccc2)o1)=C(/O)c1ccccc1	inactive: -9.86%	–
O=C1NN(c2ccccc2)C(=O)C1=Cc1ccccc1	inactive: 4.27%	–
S=C(Nc1cccc2ccccc12)NN1CCCCCC1	–	active: 22.4 µM
CCc1cc2c(=O)c(-c3nc4ccccc4[nH]3)coc2cc1OC(=O)N1CCOCC1	inactive: -2.38%	–
COc1ccc(-c2cc(C)no2)cc1S(=O)(=O)N1CCOc2ccccc21	inactive: 6.69%	–
COc1cccc2c1cc1c(=O)n(CC(=O)N3CCN(c4cccc(C)c4C)CC3)nc(C)n12	inactive: 1.77%	–
O=C(Nc1cccc(C(F)(F)F)c1)/C(=C/c1ccco1)NC(=O)c1cccs1	inactive: -17.9%	–
CCN1C(=O)/C(=C/c2ccc(N3CCCC3)cc2)NC1=S	–	active: 25.1 µM
CC12CCC(C(=O)Nc3ccccc3Cl)(C(Br)C1=O)C2(C)C (configuration not stated)	inactive: -17.7%	–
Cc1ccccc1NC(=O)Cn1nnc(C(=O)NCc2ccco2)c1N	inactive: -0.739%	–
CN1CCS/C1=C\C=C1/SC(=S)N(CC(=O)O)C1=O	inactive: -13%	–
CCC1CCCCN1CCCNC(=O)c1cc2c(Cl)nc3ccccc3c2s1 (configuration not stated)	inactive: -13.2%	–
O=C(Cc1cccs1)N/N=C/C=C/c1ccco1	inactive: -11.1%	–
O=C(CCN1C(=O)/C(=C\c2ccccc2)SC1=S)NCCCN1CCOCC1	inactive: -0.715%	–
Cc1ccc(S(=O)(=O)Nc2c(C)n(C)n(-c3ccccc3)c2=O)cc1	inactive: -7.5%	–
O=C(C[C@H]1C/C=C\CC[C@H](Cc2ccc(F)cc2)C(=O)O[C@H](c2ccccc2)CNC1=O)N[C@H](CO)Cc1ccccc1	inactive: -10.9%	–
Cc1ccc2c(Cl)c(C)c(N3CCOCC3)nc2n1	inactive: 23.8%	–
C=CC[n+]1c(C)csc1Nc1ccc(C(=O)O)cc1	inactive: 2.08%	–
